Assay results published in PubChem BioAssay AID623887 (Johns Hopkins Ion Channel Center, 2012).
Some entries of the source have several records that differ or are many. Only these are listed. There may be further records. Values that stand side by side are repeated measurements across runs, samples, wells, individuals or studies. Brackets tell where a record comes from. The letters are not those of the source and start again with each entry.

Target: Potassium channel subfamily K member 9 (Homo sapiens) (UniProt Q9NPC2)
Test: KCNK9 two-pore potassium channel inhibitors, SAR follow-up, cell-based, round 4 (AID 623887)
Details: HEK293-KCNK9 thallium flux, FluxOR fluorescence
How it was run: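 Assay system: tetracycline-induced HEK293 cells stably expressing the KCNK9 channel; Incubation: 90 min dye loading, then 20 min compound preincubation at room temperature; Repeats: replicate measurements at each compound concentration; Signal: kinetic FluxOR fluorescence of thallium influx, 110 s after stimulus; Compound dosing: concentration series.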

Sequence of UniProt Q9NPC2 (Q9NPC2 whole entry, looked up): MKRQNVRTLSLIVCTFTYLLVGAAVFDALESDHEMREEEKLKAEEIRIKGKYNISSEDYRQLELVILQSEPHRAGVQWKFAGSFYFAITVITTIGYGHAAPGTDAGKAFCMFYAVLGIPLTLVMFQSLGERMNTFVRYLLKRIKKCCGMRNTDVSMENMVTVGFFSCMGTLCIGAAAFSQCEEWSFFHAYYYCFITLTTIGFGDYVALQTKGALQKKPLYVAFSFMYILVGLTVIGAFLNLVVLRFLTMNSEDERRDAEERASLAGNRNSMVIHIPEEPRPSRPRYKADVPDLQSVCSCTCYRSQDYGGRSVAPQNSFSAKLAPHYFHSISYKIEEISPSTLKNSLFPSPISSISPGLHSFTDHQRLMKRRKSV

C[C@H]([C@@H]1CC2CC[C@H]1C2)n1c(-c2ccsc2)n[nH]c1=S
IC50: 12.8 µM [sample A] and 821 nM [sample B]
